Results: PubChem BioAssay AID1345082 (National Center for Advancing Translational Sciences (NCATS), 2018)
Screen size: about 94,000 compounds; about 4,000 (4.3%) were called active. The inconclusive results got no clear call from the source; some entries with a clear call stand among them for comparison. Calls follow the shape of the dose curve; as a rule, active = well fitted inhibition curve with a large enough effect; inconclusive = small, poorly fitted or top-dose-only effect; inactive = no such curve, though single readings can be large or run the other way. Where the call is inconclusive, the potency comes from a doubtful curve fit.

Assay: Cytotoxic Profiling in NIH 3T3 Cell Line of Diverse Libraries Using Quantitative High-Throughput Screening; also: nearly all actives have a fitted effect of over 55% in size
Conditions: NIH 3T3 viability, CellTiter-Glo ATP luminescence, 48-72 h; series mostly up to 96.7 µM
Summary of the method: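 First NIH 3T3 cells are plated at 400 cells/well; next compound is pinned in; then plates incubate 48 or 72 hr at 37 °C; finally CellTiter-Glo is added and luminescence read after 10 min.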
Potency is read from the fitted curve at half-maximal effect; tags tell the direction and shape of the fitted curve.

| Structure (SMILES) | Potency |
| --- | --- |
| O=C(NC1CCCc2c1[nH]c1c(Cl)cccc21)c1ccccn1 (configuration not stated) | inconclusive: 70.8 µM [inhibitor, single point] |
| Cc1nn(-c2ccccc2)c2c1C(C(C)C)N(C1CN(C(=O)c3ccc(C(F)(F)F)cc3)C1)C2=O (configuration not stated) | inactive |
| COc1ccc(C(=O)NC2CCN(c3cc(-c4ccccc4)[nH]n3)C2)c(C)c1 (configuration not stated) | inconclusive: 79.4 µM [inhibitor, partial curve, poor fit] |
| CCN(CC)C(=O)[C@@H](C)C1CC[C@@]2(C)Cc3sc(Nc4c(Cl)cccc4Cl)nc3[C@@H](C)[C@@H]2[C@H]1O (some centres not stated) | inconclusive: 79.4 µM [inhibitor, partial curve, poor fit] |
| Cc1ccccc1CN1Cc2nc(-c3cncnc3)ccc2OCC1=O | active: 100 µM |
| CCn1cc(CN2CCCC(c3nc4c(C)cccc4[nH]3)C2)cc1C#N (configuration not stated) | inconclusive: 56.2 µM [inhibitor, partial curve, poor fit] |
| COc1ccc(-c2ccc(C(=O)N3CCCCC3)c(Cl)c2)nn1 | inconclusive: 39.8 µM [inhibitor, partial curve, poor fit] |
| O=C(c1ccccc1)N1CCCC(c2noc(COc3ccccc3)n2)C1 (configuration not stated) | inconclusive: 44.7 µM [inhibitor, partial curve, poor fit] |
| O=C(NCCc1ccccc1)c1cn2cc(-c3ccc(F)cc3)sc2n1 | inconclusive: 50.1 µM [inhibitor, partial curve, poor fit] |
| CCc1cccc2c(C(CC(=O)N3CCC(C)CC3)c3cccc(C)c3)c[nH]c12 (configuration not stated) | inconclusive: 20 µM [inhibitor, full curve, poor fit] |
| O=C1CC(c2ccccc2)N(C(=O)CNC(=O)NC2CCCCC2)CCCCCN1 (configuration not stated) | inactive |
| CC1(C)CN(Cc2cn(Cc3ccccc3)nc2-c2cc3ccccc3o2)CCO1 | inconclusive: 79.4 µM [inhibitor, partial curve] |
| COc1ccc(CN2CCC3(CC2)C(=NC2CCCCC2)NC(=O)N3c2cc(F)cc(F)c2)cc1 | inactive |
| COc1ccc(C(=O)NC2CCN(c3cc(-c4cccs4)[nH]n3)C2)c(OC)c1 (configuration not stated) | inconclusive: 50.1 µM [inhibitor, partial curve, poor fit] |
| O=C(c1ccc2ccccc2n1)N1CCN(C(=O)c2nnn3c2COC(c2ccccc2)C3)CC1 (configuration not stated) | inactive |
| O=C(NC1CCCNC1)C1CCN(c2nc(-c3ccccc3)nc3c2CCC3)CC1 (configuration not stated) | active: 44.7 µM |
| Cc1ccc(CN2CCC(CN(C)C(=O)c3ccc(C4CCCN4)s3)CC2)o1 (configuration not stated) | inconclusive: 56.2 µM [inhibitor, partial curve, poor fit] |
| CN(C)c1ccc(CN2CCOC[C@H]2c2ncc(-c3cccc(Cl)c3)[nH]2)cc1 | inconclusive: 79.4 µM [inhibitor, partial curve] |
| COc1cc(C)ccc1OCc1cc(C(=O)N(C)Cc2ncccc2C)no1 | active: 35.5 µM |
| O=C(c1cnccn1)N1CCC2(CC1)CC(N(Cc1ccc(F)cc1)C1CC1)CCO2 (configuration not stated) | inactive |
| CCc1n[nH]c(CC2CCN(C(=O)Cc3c[nH]c4ccccc34)CC2)n1 | inactive |

| Structure (SMILES) | Potency |
| --- | --- |
| CC(C)CN(CC1CN(C(=O)c2cccc(Cl)c2)CCO1)C(=O)c1cccc2ccccc12 (configuration not stated) | inconclusive: 50.1 µM [inhibitor, partial curve, poor fit] |
| CCOc1cccc(CN2CCOc3ccc(C(=O)NCc4ccccc4F)cc3C2)c1 | inconclusive: 31.6 µM [inhibitor, partial curve] |
| COc1ccc(CN2CCNc3cc(-c4ccnc(C)c4)ncc3C2)cc1O | inconclusive: 79.4 µM [inhibitor, partial curve, poor fit] |
| O=c1cc(N2CCOCC2)oc2c(-c3ccc(F)cc3)nccc12 | active: 31.6 µM |
| COc1ccc(C(=O)NC(C(=O)N2CCCCC2)C2CCN(C(=O)c3ccc(F)cc3)CC2)cc1 (configuration not stated) | inactive |
| COC1CN(C2CCN(C(=O)c3ccncc3)CC2)C12CCOCC2 (configuration not stated) | inactive |
| NC(=O)c1ccc2[nH]c(CN3CCC(Oc4ncccn4)CC3)cc(=O)c2c1 | inactive |
| Cc1noc(C)c1[S+](=O)([O-])N1CCC2(CC1)OCCN(c1ccc(F)cc1)C2=O | inconclusive: 100 µM [inhibitor, partial curve, poor fit] |
| O=C(Nc1ccc(F)cc1)N1CCC(O)(c2csc(CN3CCN(c4ccccn4)CC3)n2)CC1 | inconclusive: 50.1 µM [inhibitor, partial curve, poor fit] |
| Fc1ccc(Cc2nc3nccc(-c4cccnc4)n3n2)cc1 | inactive |
| Cc1nc(C)c(C(=O)N2CC(C)(C)C(C)(O)C2)s1 (configuration not stated) | inactive |
| Cc1ccc(CN2CCCC(c3nc(C(C)C)no3)CCNC(=O)CC2)s1 (configuration not stated) | inconclusive: 44.7 µM [inhibitor, partial curve] |
| COc1ccccc1Cc1nc(C2CC(=O)N(c3ccc(F)c(Cl)c3)C2)no1 (configuration not stated) | inconclusive: 50.1 µM [inhibitor, partial curve, poor fit] |
| O=C(Cc1cccc(Cl)c1)N1CCC2(CC1)CCN(Cc1cccs1)c1ccccc1O2 | inconclusive: 12.6 µM [inhibitor, full curve] |
| O=C(Nc1ccccc1)N1CCCC(C(=O)N2CCC(c3ccccc3)CC2)C1 (configuration not stated) | inconclusive: 50.1 µM [inhibitor, partial curve, poor fit] |
| Cc1ccc(N2Cc3c(NCCCc4ccccc4)ncnc3N(C)CC2=O)cc1 | inconclusive: 44.7 µM [inhibitor, partial curve, poor fit] |
| COc1ccc(NC2CCCN(C(=O)c3ccccc3C(F)(F)F)C2)cc1OC (configuration not stated) | inactive |
| Cc1cccc(C(=O)N2CCC(c3nc(-c4cccn4C)no3)C2)c1 (configuration not stated) | inconclusive: 50.1 µM [inhibitor, partial curve, poor fit] |
| Cc1nc(-c2ccc(F)cc2)n(CC(=O)Nc2cc(F)ccc2F)c(=O)c1CCO | inactive |
| CC(=O)NC1(C)CCCN(Cc2cc(Br)cs2)C1 (configuration not stated) | inconclusive: 100 µM [inhibitor, partial curve, poor fit] |
| COc1ccc(C(=O)Nc2ccc([C@H]3OCC(=O)N(Cc4cccnc4)[C@@H]3CO)cc2)cc1 | inconclusive: 11.2 µM [inhibitor, partial curve, poor fit] |
